# The list shows a part of the results.
# System: T1, Caupolican (Caup) homeodomain DNA-binding domain
# T1 sequence: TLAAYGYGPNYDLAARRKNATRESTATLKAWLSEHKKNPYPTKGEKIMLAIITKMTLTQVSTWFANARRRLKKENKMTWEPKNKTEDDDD
# Assay: PBM E-score (8-mer, recovered from the published 9-mer minima) (E-score (dimensionless, -0.5 to 0.5)); Drosophila protein; higher = stronger relative binding preference, active = 0.31 or more
# How it was run: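 Caup's homeodomain DNA-binding domain (residues 214-303) was produced by in vitro transcription and translation and applied at 100 nM to custom-designed protein binding microarrays. Each value is an enrichment score giving relative binding preference for a short DNA word; higher means stronger. Published 9-mer scores were the minimum of their two constituent 8-mer scores, and the 8-mer values were recovered from those minima. A cutoff of 0.31 marks candidate binding sequences.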
row,Sequence,PBM E-score
1,ACCCCTGA,inactive: -0.0489
2,AACCCCGG,inactive: -0.172
3,ATGGATTC,inactive: 0.0469
4,CCGAGGCG,inactive: -0.26
5,TCACGGCA,inactive: -0.0212
6,ACGTAATC,inactive: 0.155
7,CTTCCGTA,inactive: -0.0405
8,ACTATCGG,inactive: -0.056
9,CAATGTCA,inactive: 0.293
10,ACACACGT,inactive: 0.254
11,AGCAAAAA,inactive: 0.0293
12,TGGACTAA,inactive: 0.0168
13,AGTCCTAA,inactive: 0.024
14,TAACACGA,active: 0.323
15,ACAGTCGG,inactive: -0.0363
16,CTTAGTTA,inactive: 0.075
17,GGATGACA,inactive: 0.191
18,ATCCAAGG,inactive: -0.117
19,AACTCCAG,inactive: -0.161
20,GGCTTAGA,inactive: -0.112
21,CTGCTCAA,inactive: -0.0253
22,ACTGTGAC,inactive: 0.106
23,GGCAAGCA,inactive: -0.119
24,AACCATAG,inactive: -0.0441
25,CATTCCAC,inactive: -0.0122

row,Sequence,PBM E-score
1,CCGCGATC,inactive: -0.125
2,CTGGGACC,inactive: -0.164
3,GCGGAAGC,inactive: -0.26
4,GTGATAGA,inactive: 0.0228
5,GCAATGAA,inactive: 0.0997
6,ACTTCACT,≥ 0.0481
7,AGTTGGCA,inactive: -0.00361
8,ATTTAAAG,inactive: 0.00458
9,AATAAGGA,inactive: 0.0417
10,ATTTTAGC,inactive: 0.00876
11,GGATTTCA,inactive: 0.0363
12,ATCTGGAC,inactive: -0.0495
13,AGGTCAGG,inactive: -0.165
14,GCGGCCCC,inactive: -0.34
15,TGTTTAAA,inactive: 0.241
16,CGCGTGTC,inactive: 0.201
17,TATGGGCA,inactive: -0.0516
18,ACCTGGTA,inactive: 0.104
19,ATCATTAG,inactive: 0.119
20,GAACAAGC,inactive: 0.302
21,ATCATACA,inactive: 0.302
22,GAAAAGCC,inactive: -0.165
23,ACAGCTAA,inactive: 0.141
24,ATTAGGTG,inactive: 0.136
25,GCGGAAGA,inactive: -0.111

row,Sequence,PBM E-score
1,CGCTCATC,inactive: -0.0826
2,GCACGCTA,inactive: -0.128
3,CTTGGTCA,inactive: -0.0643
4,AGCAGCTC,inactive: -0.171
5,ATGGGTCC,inactive: -0.0747
6,AGGGCTAC,inactive: -0.0721
7,ATATCCCC,inactive: -0.00098
8,GGGTCACC,inactive: -0.305
9,AGCGGGAG,inactive: -0.266
10,CAGATCGC,inactive: -0.0937
11,GCCGGCTA,inactive: -0.225
12,CGGTCACG,inactive: -0.176
13,ACGGTCCC,inactive: -0.197
14,AGCAAACC,inactive: 0.0858
15,GCACTGCA,inactive: -0.14
16,GACGCTAA,inactive: -0.127
17,ATGGGATC,inactive: 0.032
18,CCCCACCA,inactive: -0.245
19,AGAGTCGA,inactive: -0.0788
20,CTGACGAA,inactive: 0.0306
21,CGTCCTCC,inactive: -0.156
22,AGCTAAAC,inactive: 0.0265
23,CGTTATGA,inactive: -0.0221
24,AAAACTGT,inactive: 0.128
25,AAACTTAC,inactive: 0.201

row,Sequence,PBM E-score
1,ATCTAGTC,inactive: 0.05
2,CTCGATCA,inactive: -0.0459
3,ACGCGAAA,inactive: -0.0228
4,GACTCACA,inactive: 0.082
5,CTGAACAG,inactive: 0.058
6,AGTCACTC,inactive: -0.0168
7,CGCGCTGC,inactive: -0.153
8,CCCGCTGC,inactive: -0.202
9,GCGCTGCA,inactive: -0.156
10,GTCCCGCA,inactive: -0.157
11,CTGGAACA,inactive: 0.199
12,CAGATAAG,inactive: 0.0966
13,GGTATTCA,inactive: 0.075
14,AGCACTCC,inactive: -0.0245
15,CACCTGTC,inactive: 0.132
16,ACAGGGCA,inactive: 0.069
17,GTCTTATA,inactive: 0.151
18,AAGGCCCC,inactive: -0.268
19,GTCGGGGA,inactive: -0.0318
20,GACTCTGA,inactive: 0.0102
21,TGGATGAA,inactive: 0.0632
22,ACTTACGC,inactive: 0.0663
23,CGCCCCCG,inactive: -0.299
24,GCGCACGC,inactive: -0.251
25,ATTCGAAC,inactive: 0.16

row,Sequence,PBM E-score
1,GCAGGCGC,inactive: -0.288
2,CAATGGTA,inactive: 0.112
3,CTGGCTAA,inactive: -0.0751
4,AGGGAGCC,inactive: -0.254
5,ACAATCAC,inactive: 0.133
6,CGGGGACG,inactive: -0.139
7,AGTGTAAC,inactive: 0.2
8,CACGCACA,inactive: 0.0915
9,GCCACACA,inactive: -0.0551
10,GAAGAATA,inactive: 0.0843
11,ACTGTGTC,inactive: 0.229
12,AATTAGGG,inactive: 0.0221
13,ACGAACAA,inactive: 0.298
14,AGATAGCT,inactive: 0.0303
15,CCGAGGAG,inactive: -0.115
16,CGGAGTAG,inactive: -0.0319
17,GACAATTA,inactive: 0.168
18,ACGAGGCG,inactive: -0.0824
19,AAGAATAC,inactive: 0.148
20,ATACTCGG,inactive: 0.00654
21,AGTTGAAC,inactive: 0.00101
22,TGCTCACA,inactive: 0.0534
23,AGTGTTTC,inactive: 0.0785
24,ATAACGTA,≥ 0.208
25,ATGCTGTG,inactive: 0.136

row,Sequence,PBM E-score
1,GCGCTCCC,inactive: -0.312
2,CGCCGGGA,inactive: -0.268
3,CATGTATA,active: 0.418
4,TCCTGGCA,≥ -0.0742
5,ATGTTTGA,active: 0.327
6,CACGAACA,inactive: 0.27
7,CCCCTGGA,inactive: -0.283
8,CAATAAAG,inactive: 0.0464
9,GCTTAGAC,inactive: -0.109
10,CCAAGGCC,inactive: -0.285
11,ATGAGTGG,inactive: -0.0457
12,GCGAATCA,inactive: 0.039
13,TAAGAGCA,inactive: -0.0396
14,CACTTGAG,inactive: -0.104
15,GTAAAGGA,inactive: 0.0746
16,ACCCCCTA,inactive: -0.201
17,AGGGACAA,inactive: 0.0424
18,ACGATCGC,inactive: -0.0712
19,AGCGAACA,inactive: 0.136
20,CTACTGGA,inactive: -0.0316
21,TCCGTGAA,inactive: 0.0438
22,ATGTCAGA,active: 0.336
23,AGATATCC,inactive: 0.0875
24,AAATGATT,inactive: 0.171
25,GCAGAACA,inactive: 0.174

row,Sequence,PBM E-score
1,GTACGAAC,inactive: 0.108
2,TCCTTGCA,inactive: -0.039
3,AGCCCCCA,inactive: -0.365
4,GTTTCGAA,inactive: 0.0513
5,AGGTCTCG,inactive: -0.0846
6,GGGCCTTA,inactive: -0.199
7,GCCGGGCC,inactive: -0.243
8,ACGAATAA,inactive: 0.146
9,GCGAGGCC,inactive: -0.21
10,ACCAACCG,inactive: -0.0503
11,GACCAGAA,inactive: 0.00802
12,TTTTAAAA,inactive: 0.00747
13,AGTGTACA,active: 0.337
14,AGGGGAGA,inactive: -0.152
15,CGTAGCAA,inactive: 0.066
16,CGGTAGGC,inactive: -0.149
17,GTGGCTTA,inactive: -0.0913
18,CTTCCAAC,inactive: -0.0418
19,GAGGCTTA,inactive: -0.129
20,CGCAGTCC,inactive: -0.137
21,CCTCGAGA,inactive: -0.0348
22,ACCTCACT,≥ 0.021
23,ACACGTAG,inactive: 0.271
24,AAGCTGCT,inactive: 0.00226
25,TAGACGGA,inactive: -0.0225

row,Sequence,PBM E-score
1,GCGGGACC,inactive: -0.187
2,GAGCTTTA,inactive: -0.143
3,GCACGCAC,inactive: -0.14
4,TCACGCGA,inactive: -0.0203
5,AACGGGAG,inactive: -0.0126
6,TCTCGGCA,inactive: -0.144
7,CCCCTTAA,inactive: -0.141
8,ACACATAA,inactive: 0.291
9,CACCATGC,inactive: -0.0233
10,AGCACAAA,inactive: 0.0386
11,GAGTTTTA,inactive: 0.00246
12,CAGATGGG,inactive: -0.0895
13,ACCATCGT,inactive: -0.0669
14,CAAGACGG,inactive: -0.03
15,GTCCCGGA,inactive: -0.0787
16,CCTGGTAA,inactive: 0.0149
17,CCCGACGA,inactive: -0.0169
18,ATTGATAA,≥ 0.161
19,CCTAGTAG,inactive: 0.0229
20,CGGCGTTC,inactive: -0.195
21,GCATGAAC,inactive: 0.104
22,GCGGAATA,inactive: -0.0586
23,GACCGTTA,inactive: 0.0165
24,CATCGCAC,inactive: -0.083
25,TCAGGACA,inactive: 0.159

row,Sequence,PBM E-score
1,CGCGTCTC,inactive: -0.0855
2,ACTCTTAT,inactive: 0.0766
3,TATACAGA,inactive: 0.217
4,CGCATACA,inactive: 0.19
5,GCGGTAGA,inactive: -0.143
6,ACCTAAAA,≥ 0.052
7,GGCGTTCA,inactive: -0.0934
8,CAGTACCC,inactive: -0.0363
9,ACCCACTG,inactive: -0.0838
10,ACTCTCCG,inactive: -0.151
11,ACGAATAG,inactive: -0.00982
12,CTCCTAGC,inactive: -0.16
13,CCAGTAGG,inactive: -0.0825
14,TATTACCA,inactive: 0.18
15,GGAGTTGA,inactive: -0.079
16,ACGGAGGC,inactive: -0.228
17,GATCACGC,inactive: 0.0866
18,CGTGACGA,inactive: -0.0536
19,TCCCGCAA,inactive: -0.0491
20,ACACTACA,≥ 0.27
21,ACCAATTA,≥ 0.129
22,GACAACAC,active: 0.352
23,AAGCGCAT,inactive: -0.0288
24,CGAGTCGC,inactive: -0.167

# Source: the supplement of paper PMC3724861
